Assay results as given in PubChem BioAssay AID1508624 (National Center for Advancing Translational Sciences (NCATS), 2021).
In all, about 48,000 compounds went through this assay and about 120 (0.25%) were called active. The shares of active, inactive and inconclusive entries below differ from those in the screen. The call rests on the fitted dose curve; in most records, active means well fitted activation curve with a large enough effect; inconclusive means small, poorly fitted or top-dose-only effect, or another doubt; inactive means no such curve, though single readings can be large or run the other way. Potencies of inconclusive entries are doubtful fits and often do not repeat.

assay: Primary qHTS for Identification of Small Molecule Activators of Huntingtin-Antisense Promoter Activity; conditions: HEK293 HTT-AS promoter firefly luciferase reporter, 24 h; activity change, positive = activation: at 57.5 µM (top of the series), percent change from vehicle, -100% = no light unless noted; further: nearly all actives have a fitted effect of over 55% in size
Text: Assay Provider: Russell L. Margolis M.D.
Department Neurology, Johns Hopkins University School of Medicine, Baltimore, MD
Huntington's Disease (HD) is a neurodegenerative disorder caused by a CAG repeat expansion in exon 1 of huntingtin (HTT). While there are currently no disease-modifying treatments for HD, recent efforts have focused on development of nucleotide-based therapeutics to lower HTT expression. As an alternative to siRNA or oligonucleotide methods, we hypothesized that suppression of HTT expression might be accomplished by small molecules that either (1) directly decrease HTT expression by suppressing HTT promoter activity or (2) indirectly decrease HTT expression by increasing the promoter activity of HTT-AS, the gene antisense to HTT that appears to inhibit expression of HTT.
We developed and employed a high throughput screen for modifiers of HTT and HTT-AS promoter activity using luminescent reporter HEK293 cells; of the 52,041 compounds tested, we identified 898 replicable hits. We used a rigorous stepwise approach to assess compound toxicity and the capacity of the compounds to specifically lower huntingtin protein in 5 different cell lines, including HEK293 cells, HD lymphoblastoid cells, mouse primary neurons, HD iPSCs differentiated into cortical-like neurons, and HD hESCs. We found no compounds which were able to lower huntingtin without lowering cell viability in all assays, though the potential efficacy of a few compounds at non-toxic doses could not be excluded.
SEQUENCE No. (1, 2, 3, etc.); […] (e.g., Cells, Incubation, Reagent, etc.); VALUE and DESCRIPTION.
1; Reagent; 4 uL; 2,500 Hek293 luciferase reporter cells per wells
3; Compound; 23 nL; Control inhibitor / compound library
5; Reagent; 2.5 uL; Firefly Luc reagent; Dual-Glo Luciferase Reporter Assay System (Promega)
6; Time; 10 min; room temperature incubation
7; Detection; Luminescence; FLuc
NOTES (numbers refer to sequence above)
1; High-throughput screening, measuring luminescence from a Hek293 luciferase reporter, was performed in 1,536 well white-walled tissue-culture treated plates. 2,500 cells were plated in 4 µL of Opti-MEM per well using a Multidrop Combi Reagent Dispenser (ThermoFisher).
2; Assay plates were cultured for 24 hours.
3; Control inhibitor (PTC124; final concentration of 50 uM) and compound library (at final concentrations of 460 nM - 57.5 uM) were added to the assay plate using the Kalypsis Pintool Robotic System equipped with 1536 pinheads.
4; Cells were then incubated for 24 hours at 37 degrees C prior to luminescence measurements.
5; In all cases, luminescence was measured using the Dual-Glo Luciferase Reporter Assay System (Promega) following the manufacturer's instructions.
6; Room temperature incubation.
7; Luminescence signal was obtained using the PerkinElmer ViewLux plate reader. Results were normalized to vehicle control (0% activity) and zero RLU (-100% activity).
Potency means the concentration at half of the fitted maximal effect; tags describe the fitted curve by direction and shape.

Potency, inconclusive:
O=C(Nc1ccc(F)cc1)c1ncn(-c2ccccc2)n1 2.24 µM [activator, partial curve, poor fit]
Cc1ccc(C)c(N2CCN(c3nc4ccccc4n4nnnc34)CC2)c1 14.1 µM [activator, partial curve]
COc1cccc(-c2noc(COc3cccc(C)c3C)n2)c1 31.6 µM [activator, partial curve, poor fit]
C/C(=N\O)c1ccc(OCC(=O)N2CCCCC2)cc1 1.78 µM [activator, partial curve, poor fit]
CN(Cc1ccccc1)c1ccc(-c2nc(-c3ccco3)no2)cc1[N+](=O)[O-] 1.78 µM [activator, full curve, poor fit]
Cc1cc(C)c2nc(N3CCCC(C(=O)NCc4cccc(Br)c4)C3)sc2c1 (stereo not drawn) 1.58 µM [activator, full curve, poor fit]
O=C(Nc1nc2c(F)cc(F)cc2s1)c1ccc2c(c1)OCCO2 0.178 µM [activator, full curve, poor fit]
CC(=O)N1CCc2cc(CNC(=O)Cc3ccc(F)cc3)ccc21 14.1 µM [activator, partial curve]
Cc1cccc(NC(=O)c2ccc3snnc3c2)c1 10 µM [activator, partial curve, poor fit]
O=C(NCCc1ccccc1)c1sc2ncccc2c1-n1cccc1 10 µM [activator, partial curve]
CCCCc1nn2c(=O)cc(COC(=O)c3ccc(NC(=O)c4ccccc4C)cc3)nc2s1 0.316 µM [activator, full curve, poor fit]
Cc1noc(-c2ccc(N3CCCCC3)c([N+](=O)[O-])c2)n1 2.24 µM [activator, full curve]
Cc1ccccc1CCNC(=O)c1ccc2c(c1)nc1n2CCC(C)C1 (stereo not drawn) 2.24 µM [activator, full curve, poor fit]
COc1ccc(-c2nn(CC(=O)NCc3ccccc3)c3c2cnc2ccc(F)cc23)cc1 17.8 µM [activator, partial curve, poor fit]
CCn1cc(C(=O)N2CCN(c3ccccc3)CC2)c(=O)c2cc(S(=O)(=O)N3CCCC3)ccc21 3.98 µM [activator, single point]
CCCN(Cc1cccs1)C(=O)Nc1ccc(Br)c(C)c1 8.91 µM [activator, partial curve]
Cc1ccc(Cl)cc1NC(=O)c1cc(-c2ccc3c(c2)OCCO3)on1 1.58 µM [activator, partial curve, poor fit]
COc1cccc(C(=O)Nc2ccc(C(=O)OCc3cc(=O)n4cc(C)sc4n3)cc2)c1 20 µM [activator, single point]
Cc1ccc(-c2cc3ncc4c(n3n2)-c2ccccc2OC4)cc1 1.58 µM [activator, full curve, poor fit]
Fc1ccc(Nc2c(-c3c[nH]c4ccccc34)nc3ccccn23)cc1 1.78 µM [activator, full curve, poor fit]
Cc1ccc(NC(=O)c2ccc3snnc3c2)cc1Cl 1.26 µM [activator, partial curve, poor fit]
Cc1ccc(-c2nc3ccccc3s2)cc1NC(=O)COc1ccccc1 11.2 µM [activator, partial curve, poor fit]
O=C(c1ccco1)n1nc(-c2ccc(Cl)cc2)nc1NCc1ccccc1 14.1 µM [activator, partial curve]
CCN1CCN(c2ncnc3c2cnn3-c2ccc(C)c(Cl)c2)CC1 2.24 µM [activator, full curve, poor fit]
CCOc1ccc(S(=O)(=O)Nc2ccc3c(c2)N(C(C)=O)CCC3)cc1 0.891 µM [activator, partial curve, poor fit]
Cc1ccc2nc(N3CCN(C(=O)C4CC4)CC3)sc2c1 1.41 µM [activator, full curve, poor fit]
CCc1ccc2oc(-c3ccc(NC(=O)c4ccc(OC)c(Br)c4)cc3)nc2c1 3.98 µM [activator, partial curve]
COC(=O)c1ccc(Cn2nnc3sc4c(c3c2=O)CCC(C)C4)cc1 (stereo not drawn) 2 µM [activator, full curve]
O=C(NC1CCCc2ccccc21)c1ccc2c(c1)sc1nc(-c3ccc(F)cc3)cn12 (stereo not drawn) 22.4 µM [activator, single point]
CCc1ccc2c(c1)NC(c1cccs1)=NC(c1ccc(F)cc1)=N2 12.6 µM [activator, partial curve]
Nc1nc(Nc2ccccc2F)sc1C(=O)c1ccc(Cl)cc1 1.41 µM [activator, full curve, poor fit]
Cc1nc(N2C(=O)c3oc4ccccc4c(=O)c3C2c2cccc(OCCC(C)C)c2)sc1C (stereo not drawn) 0.178 µM [activator, partial curve, poor fit]
C=CCc1cccc2cc(C(=O)Nc3ccc(F)cc3)c(=O)oc12 10 µM [activator, partial curve]
Cc1ccc(CN2CCSc3ccc(C(=O)NCC(C)c4ccccc4)cc32)cc1 (stereo not drawn) 3.55 µM [activator, full curve, poor fit]
CCOC1OC(=O)C[C@H]1NC(=O)[C@@H]1CCCN1C(=O)[C@@H](NC(=O)c1ccc(N)c(Cl)c1)C(C)(C)C (stereo partly drawn) 8.63 µM [activator, partial curve, poor fit]
Cc1ccc(Cn2cnc3c(oc4ccccc43)c2=O)cc1 14.1 µM [activator, partial curve, poor fit]
O=C(Nc1onc2c1CCCC2)c1ccc(Cl)cc1 1.12 µM [activator, full curve, poor fit]
Cc1ccccc1-c1nnc(SCC(=O)N(C)C2CCCCC2)o1 10 µM [activator, partial curve]
Cc1ccc2nc(-c3ccc(NC(=O)c4ccc(S(C)(=O)=O)cc4)cc3)sc2c1 0.251 µM [activator, full curve, poor fit]
Cc1c(C(=O)Nc2cccc(-c3nc4ccccc4s3)c2)oc2ccccc12 15.8 µM [activator, partial curve]
COc1ccc(Nc2nccc(NCCO)n2)cc1 7.69 µM [activator, full curve]

Potency, active:
O=C(Cc1ccccc1)Nc1cccc(-c2cn3cccnc3n2)c1 11.2 µM

Activity change, positive = activation, inactive:
Cc1ccc(N(C)S(=O)(=O)c2ccc3[nH]c4c(c3c2)CCCC4)cc1 -20.2%
COC(=O)c1cccc(Cn2nnc3sc4c(c3c2=O)CCC(C(C)(C)C)C4)c1 (stereo not drawn) -49.6%
CCc1ccc(NC(=O)C2CCC(CNS(=O)(=O)c3ccc4c(c3)CC(C)N4C(C)=O)CC2)cc1 (stereo not drawn) -35%
COc1ccccc1N1CCN(C(=O)c2nc(SC)ncc2Cl)CC1 -17.6%
COc1ccc(C)cc1NC(=O)CCS(=O)(=O)c1cc2c3c(c1)CCN3C(=O)CC2 6.09%
CCCNC(=O)CCc1nnc2ccc(N3CCN(c4cccc(OC)c4)CC3)nn12 -8.13%
CC(=O)Nc1cccc(-n2c(=O)n(C3CC3)c(=O)c3c(Nc4ccc(I)cc4F)n(C)c(=O)c(C)c32)c1 3.63%
OCCN1CCN(CC/C=C2/c3ccccc3Sc3ccc(C(F)(F)F)cc32)CC1 -18.7%
COc1cccc(C(=O)Nc2nc3nc(C)c(C)c(=O)n3[nH]2)c1 -13.8%
COc1cc(-c2nc3cccc(C)n3c2Nc2ccc3c(c2)OCCO3)ccc1O -5.82%
O=S(=O)(c1ccc(Cl)cc1)N1CCC(c2ccncc2)CC1 -7.6%
Cc1nn(C(=O)c2ccccc2)c(C)c1Sc1ccc(Cl)cc1 -72.6%
CCN(CC)CCNC(=O)c1cc(-c2ccc(Br)s2)nc2ccccc12 -19.7%
Cc1ccc(OCC(=O)NCC(c2ccc(Cl)cc2)N2CCCCC2)cc1 (stereo not drawn) -17.1%
Cc1nc2c(c(C)nn2-c2ccccc2)c(C)c1CCC(=O)NCCc1ccccc1 -6.62%
COc1ccc(OC)c(-n2cnc3cc(C(=O)NC4CCCCCC4)ccc32)c1 1.82%
CCc1ccc(C2CC(=O)Nc3cc4c(cc32)OCO4)cc1 (stereo not drawn) -37.2%
Cc1cccc(NC(=O)c2c(NC(=O)C(F)(F)F)sc3c2CCCCC3)c1 -92.2%
Cc1c(Cl)cccc1-c1ccc(C(=O)Nc2ccc(F)cc2)o1 -5.65%
Cn1c(=O)c2c(nc(NCc3ccccc3)n2Cc2ccccc2)n(C)c1=O -31.1%
CCn1cc(C(=O)N2CCN(c3cccc(C(F)(F)F)c3)CC2)c2cc(OC)c(OC)cc2c1=O -19%
Cc1ccc(C2=Nc3ccc(Cl)cc3OC2)cc1 21.3%
CC(=O)c1ccc(NC(=O)c2nc(-c3ccc(C)cc3)n3c2CCCCC3)cc1 -31.3%

Activity change, positive = activation, inconclusive:
Cc1ccc(C)c(NC(=O)C2CCCN2S(=O)(=O)c2ccc3c(c2)CCCC(=O)N3)c1 (stereo not drawn) -46.6% [activator]
CCCCOC(=O)c1ccc(NC(=O)Cc2coc3c(C)c(C)ccc23)cc1 -31.8% [activator]
COc1cccc(-n2c(SCC(=O)Nc3ccc(F)cc3F)nc3c([nH]c4ccccc43)c2=O)c1 -24.5% [activator]
